Source: PMC10552892, “Ebselen oxide and derivatives are new allosteric HER2 inhibitors for HER2‐positive cancers” (Molecular Oncology, 2023)

What was measured:
V842I HER2 = V842I HER2 (Homo sapiens, UniProt P04626, V842I); experiment: Activation of gD-tagged V842I HER2 in HBMECs, western blot; conditions: 5–10 μM, 24 h, one range printed for V777L and V842I
[1] = test system: HBMECs overexpressing V777L HER2; experiment: Proliferation of HBMECs overexpressing V777L HER2 (Incucyte, MTT)

Q: Which results are given for `O=C1c2ccccc2[Se](=O)N1c1ccccc1` (stereo not drawn) [Ebselen oxide, ebselen oxide]?
A: Inhibition of V842I HER2 activation (V842I HER2): 34–49%; Inhibition of cell proliferation induced by overexpression of V777L HER2 ([1]; 5 μM, Incucyte 5 days): almost totally inhibited; Inhibition of proliferation compared with AG1478 (5 μM) ([1]; MTT 3 days, V777L): better
